This data set deals with the molecule itself. Put plainly: negative-stain EM.

B1: Escherichia coli DnaB S36R/I85R (constricted double-arginine mutant) (enzyme)
chain: not shown
With B1, the binding result was “binds”.

B2: Escherichia coli DnaB T86C/A121C, oxidized (dilated mutant) (enzyme)
chain: not shown
modifications: disulfide bonds between the introduced cysteines at 86 and 121 (oxidized)
Regarding B2, the binding result is given as “binds”.
